Results published in PubChem BioAssay AID1963319 (National Center for Advancing Translational Sciences (NCATS), 2024).
The whole screen tested about 1,300 compounds, of which about 120 (9.2%) were called active. The inconclusive results got no clear call from the source; some entries with a clear call stand among them for comparison. The call rests on the fitted dose curve; in most records, active means well fitted activation curve with a large enough effect; inconclusive means small, poorly fitted or top-dose-only effect; inactive means flat fitted curve, though single readings scatter. A potency beside an inconclusive call is a rough fit, not a confirmed value.

Molecular target: Luciferin 4-monooxygenase (Photinus pyralis) (UniProt P08659)
Assay: Firefly luciferase (FLuc-C-HiBiT) SDR gain of signal screen - plus ATP;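 further: signal reports ligand binding via conformational change of the enzyme rather than luciferase catalysis; nearly all actives have a fitted effect of over 55% in size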
Conditions: purified FLuc-C-HiBiT + ATP, HiBiT complementation luminescence; series mostly up to 32.7 µM
Procedure, shortened: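 FLuc-C-HiBiT (10 nM final) with 10 uM ATP was incubated with library compounds over 30 min at room temperature in the dark. Nano-Glo HiBiT reagent was then added, and after 5-10 min luminescence was imaged on a CCD camera.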
Potency means the concentration at half of the fitted maximal effect; tags describe the fitted curve by direction and shape.

Sequence of UniProt P08659 (P08659 whole entry, looked up): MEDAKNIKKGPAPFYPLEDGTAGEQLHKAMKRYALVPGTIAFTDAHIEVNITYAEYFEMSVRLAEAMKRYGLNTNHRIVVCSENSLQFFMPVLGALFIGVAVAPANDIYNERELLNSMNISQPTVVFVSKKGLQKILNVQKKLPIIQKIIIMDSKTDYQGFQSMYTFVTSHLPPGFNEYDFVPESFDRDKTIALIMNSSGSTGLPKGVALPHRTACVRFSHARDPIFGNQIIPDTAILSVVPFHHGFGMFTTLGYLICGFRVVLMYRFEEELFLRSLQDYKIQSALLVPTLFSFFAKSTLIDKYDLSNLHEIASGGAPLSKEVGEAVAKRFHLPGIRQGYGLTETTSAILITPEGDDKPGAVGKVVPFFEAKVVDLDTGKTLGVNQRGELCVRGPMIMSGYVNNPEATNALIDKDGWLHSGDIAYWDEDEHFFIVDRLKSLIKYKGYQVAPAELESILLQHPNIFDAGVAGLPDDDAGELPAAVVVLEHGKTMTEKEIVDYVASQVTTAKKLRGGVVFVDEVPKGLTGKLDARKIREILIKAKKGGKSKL

Potency, active:
Cc1cccc(NC(=O)C2CCN(C(=O)c3ncn4c3COC(c3ccccc3)C4)CC2)c1 (stereo not drawn) 1.97 µM
CCC(C)(C)NC(=O)c1cccc2c1CCN2C(=O)Nc1cccc(C)c1 11.1 µM
CC(C)c1ccc(N2C(=S)N[C@H]3[C@@H](O)[C@H](O)C[C@@H](C(=O)N(C)Cc4ccccc4)[C@H]32)cc1 11.1 µM
CCOc1ccc(NC(=O)CCc2c(C)nc3cc(-c4ccc(Cl)cc4)nn3c2C)cc1 0.989 µM
Cc1cn2c(=O)cc(COC(=O)c3cccc(NC(=O)COc4ccccc4Cl)c3)nc2s1 9.89 µM
COc1ccc(C(=O)Nc2onc3c2CCCC3)cc1 3.94 µM
O=C(O)c1ccnc(-c2ccnc(NCCN3CCCCC3=O)n2)c1 11.1 µM
Cc1ccc(/C=C/c2nc3ccccc3[nH]2)cc1 0.556 µM

Potency, inactive:
COc1ccc(Nc2cc(C(=O)NC3CCC(C)CC3)c3ccccc3n2)cc1OC (stereo not drawn)
COc1ccc(OC)c(CN2CCOc3ccc(C(=O)NCc4ccc(C)cc4)cc3C2)c1
N#Cc1ccc(C(=O)Nc2ccccc2-c2nc3ccccc3s2)c(F)c1
Cc1ccc(-c2cc3c(=O)n(CCNC(=O)c4cccc5[nH]ccc45)ccn3n2)cc1C
COc1ccc(-c2nc3ccccc3s2)cc1NC(=O)COc1cccc(C)c1
CCSc1ccc(C(=O)Nc2ccc(-c3nc4ccc(C)cc4s3)cc2)cc1
Cc1ccc(C(=O)COC(=O)c2cc(-c3cccs3)nc3ccccc23)cc1
O=C(Nc1ccc2oc(-c3ccccc3F)nc2c1)c1ccccc1Cl
COc1ccc(-c2nc3ccccc3s2)cc1NC(=O)COc1ccccc1C
Cc1ccc(-c2cc3c(=O)n(CCNC(=O)c4ccco4)ccn3n2)c(C)c1
CC1(NC(=O)C2CC2)CN(Cc2nc(-c3ccccc3)cs2)C1
O=C(Nc1cccc(-c2nc3ccccc3[nH]2)c1)c1ccccc1F

Potency, inconclusive:
Cc1ccc(NC(=O)Nc2ccc(C)n(CC(=O)NC3CCCC3)c2=O)cc1 1.76 µM [activator, full curve]
Cc1ccc(CNC(=O)Nc2cccc(-c3ccc(N4CCOCC4)nn3)c2)cc1 9.89 µM [activator, partial curve, poor fit]
CNC(=O)c1cccc(-c2cnc(NC(=O)c3ccncc3)c3c2CCO3)c1 20.2 µM [activator, partial curve, poor fit]
Cc1cn2nc(C(=O)Nc3ccc(C(=O)N4CCCC4)cc3)cc2c(=O)[nH]1 7.85 µM [activator, partial curve]
O=c1c2nc(N3CCC(c4ccccc4)CC3)ccc2ncn1C1CC1 16.1 µM [activator, partial curve]
CC(=O)Nc1cccc(-c2cccc(CCOc3cnc4c(ccn4CC(=O)O)c3)c2)c1 22.7 µM [activator, partial curve, poor fit]
CSCC(=O)Nc1nc2c(s1)C[C@]1(C)CC[C@@H]3[C@H](OC(=O)[C@H]3C)[C@H]1[C@@H]2C 7.18 µM [activator, partial curve]
COc1ccc(Nc2nc(-c3ccccc3F)no2)cc1OC 11.1 µM [activator, partial curve, poor fit]
CC(=O)Nc1cccc(-c2ccc(COc3ccc4c(cnn4CCC(=O)O)c3)cc2)c1 3.21 µM [activator, full curve]
Cc1cc(-c2cc3c(cn2)CN(Cc2cccs2)CCN3)ccn1 25.5 µM [activator, partial curve, poor fit]
COc1ccc(-c2cc3c(=O)n(CCNC(=O)c4c(F)cccc4Cl)ccn3n2)cc1 11.1 µM [activator, partial curve, poor fit]
C=Cc1ccc(-c2nc3ccc(OC)cc3s2)cc1 7 µM [activator, partial curve]
Cc1ccc(C(=O)Nc2cccc(-c3ccc(N4CCN(C)CC4)nn3)c2)cc1C 6.24 µM [activator, partial curve, poor fit]
COCCN1CCOc2nc(-c3cc(F)cc(OC)c3)ncc2C1=O 20.2 µM [activator, partial curve]
C[C@H](C(=O)N1CCOCC1)C1CC[C@@]2(C)Cc3sc(-c4ccccc4)nc3[C@@H](C)[C@@H]2[C@H]1O (stereo partly drawn) 8.81 µM [activator, partial curve]
CCCOc1ccccc1C(=O)Nc1ccc(-c2nc3ccc(C)cc3s2)cc1 12.4 µM [activator, partial curve, poor fit]
COc1cccc(-c2noc(-c3ccc(N4CCCC(CO)C4)nc3)n2)c1OC (stereo not drawn) 12.4 µM [activator, partial curve]
CCOc1ccc(-c2cc3c(=O)n(CCNC(=O)c4ccncc4)ccn3n2)cc1 11.1 µM [activator, partial curve]
CCOc1ccccc1NC(=O)Nc1cccc(-c2ccc(N3CCOCC3)nn2)c1 11.1 µM [activator, partial curve, poor fit]
O=C1c2cnc(-c3cc4ccccc4o3)nc2OCCN1Cc1ccccc1 4.53 µM [activator, partial curve]
CCOc1ccc2nc(NC(=O)c3ccccc3)sc2c1 12.4 µM [activator, partial curve]
c1ccc2cc(-c3nc(C4CCOC4)no3)ncc2c1 (stereo not drawn) 11.1 µM [activator, partial curve, poor fit]
CN1c2cc(C(=O)Nc3ccc4c(c3)OCCO4)ccc2C(=O)N2CCCC21 (stereo not drawn) 11.1 µM [activator, partial curve]
Cc1ccc(-c2nc(-c3ccccn3)no2)cc1Cl 2.48 µM [activator, full curve]
Cc1ccc(-c2cc3c(=O)n(CCNC(=O)Cc4ccsc4)ccn3n2)c(C)c1 2.79 µM [activator, full curve, poor fit]
Cn1ccc2c(C(=O)NCCc3cnc[nH]3)nc(-c3ccc(N4CCOCC4)cc3)cc21 18 µM [activator, partial curve, poor fit]
CN(Cc1ccccc1)C(=O)[C@H]1C[C@@H](O)[C@H](O)[C@@H]2N=C(Nc3ccc(-n4cccn4)cc3)S[C@@H]21 12.4 µM [activator, partial curve]
CCOC(=O)N1CCc2c(sc(NCc3ccc(OCC)cc3)c2C(=O)Nc2ccc(OC)cc2OC)C1 11.1 µM [activator, partial curve]
O=C(Nc1cccc(Cl)c1)c1cc(-c2ccc3c(c2)OCCO3)on1 1.97 µM [activator, full curve]
CC(=O)Nc1cccc(C(=O)NCCn2ccn3nc(-c4ccc(C)cc4C)cc3c2=O)c1 11.1 µM [activator, partial curve, poor fit]
CSc1ccc(CNC(=O)C2CCN(C(=O)c3ncn4c3COC(c3ccccc3)C4)CC2)cc1 (stereo not drawn) 7.85 µM [activator, partial curve]
O=C(NC[C@H]1Cn2cc(-c3ccc4c(c3)OCCCO4)nc2CO1)c1ccc2c(c1)OCO2 14 µM [activator, partial curve, poor fit]
CCOC(=O)N1CCc2c(sc(NCc3sccc3C)c2C(=O)Nc2ccc(OC)cc2OC)C1 6.24 µM [activator, partial curve]
OC1CN(Cc2ccc(-c3cnc4c(OCc5ccccc5)nccn34)cc2)C1 25.5 µM [activator, partial curve, poor fit]
Cc1nn(-c2ccc(C(C)(C)C)cc2)c(C)c1[C@@H]1C=C[C@@H](NC(=O)CCCC(=O)O)C1 20.2 µM [activator, partial curve, poor fit]
O=C1c2cnc(-c3cccc(CO)c3)nc2OCCN1c1ccccc1 20.2 µM [activator, partial curve]
C[C@H](C(=O)N(C)CCC#N)C1CC[C@@]2(C)Cc3sc(NC(=O)c4cccn4C)nc3[C@@H](C)[C@@H]2[C@H]1O (stereo partly drawn) 2.79 µM [activator, full curve]
CN(C)c1ccc(-c2nc(C3CCOC3)no2)cc1 (stereo not drawn) 11.1 µM [activator, partial curve, poor fit]
O=C([C@@H]1C[C@@H](O)[C@H](O)[C@@H]2NC(=S)N(c3ccc4c(c3)OCO4)[C@@H]21)N1CCOCC1 18 µM [activator, partial curve]
Cc1ccc(Cl)cc1NC(=O)c1cc(-c2ccc3c(c2)OCCO3)on1 2.21 µM [activator, full curve, poor fit]
O=C(O)c1ccc(-c2noc(-c3ccccc3C(F)(F)F)n2)cc1 9.89 µM [activator, partial curve, poor fit]
O=C(Nc1cnc(-c2ccccc2)nc1)C1CCCCC1 3.13 µM [activator, full curve]
CCn1cnnc1CC1CCN(C(=O)c2cc(-c3ccc(C)c(C)c3)nc3ccccc23)CC1 4.42 µM [activator, partial curve]
